Data as given in PMC10726135.
The other results are listed elsewhere or left out. At the low end of the ranking, values are background and their order means little. Measured with an extract: partners may take part in the binding.

These sequences were tested against T1, HNF4alpha8 (COS-7 nuclear extract) (UniProt P41235-5) (assay: protein-binding microarray). Details: COS-7 nuclear extract on double-stranded Agilent 4x180k PBM; binding buffer, salt, pH and temperature not given; high values mean tight binding; double strand, one strand shown; sequences stand for … in …GCCTAGGGAGATTAGAGTATCGGTCGA.
T1 sequence: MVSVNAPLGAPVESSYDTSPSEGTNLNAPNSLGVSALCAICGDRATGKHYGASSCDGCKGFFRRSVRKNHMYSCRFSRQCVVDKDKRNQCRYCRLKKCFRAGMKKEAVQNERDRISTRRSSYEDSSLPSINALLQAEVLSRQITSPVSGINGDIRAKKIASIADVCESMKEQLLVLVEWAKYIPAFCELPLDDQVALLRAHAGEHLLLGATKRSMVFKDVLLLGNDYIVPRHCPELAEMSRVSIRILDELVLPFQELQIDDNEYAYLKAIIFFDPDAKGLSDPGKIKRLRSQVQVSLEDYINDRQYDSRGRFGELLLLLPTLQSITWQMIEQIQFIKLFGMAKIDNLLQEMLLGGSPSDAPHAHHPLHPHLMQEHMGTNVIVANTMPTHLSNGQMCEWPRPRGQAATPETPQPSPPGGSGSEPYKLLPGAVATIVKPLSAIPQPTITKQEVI

| Sequence | binding signal (log2 normalized intensity) |
| --- | --- |
| CAACCCTTGTCACTTTCCCTTTGTCTCCAG | 0.921 |
| TTGGGCTGCACCCTGACTAAATTCTTGTCA | -0.233 |
| CTGCCATAAGCGAAGATAACCTACTTAAAA | -1.14 |
| TGTAAGAAGTGTAAAAAGATAAGATGTACC | 1.08 |
| ATAACCATGCTCAACATCAAAGGCCTTCCT | -1.28 |
| GCTCTTCAATGCATTCCTGAAGCCTTCCTT | -1.2 |
| TTCAAGGAGCTCGGCGCCAGGAAGCAATGG | -1.34 |
| GAACAAGGCTGAAGGGAAGCTCTGGGAGTG | -1.44 |
| TGGGCAGAGACTATGTGGTTTTGTAAATAT | 1.31 |
| AGCCTAGACTCAACACCCAGGCTTATCTCA | -1.36 |
| TCTATGTCCACAGAAAGGCAAGAAGTATGA | -1.19 |
| CTAGCACCTGTGGATGCAGGTCTACCTTAT | 0.621 |
| GCAGGCATACCAGGCAGAGGGTTAACCCCT | 3.77 |
| TGTCCCTCCTCAACCTCTCCAATGCTATGC | 1.46 |
| ATAAAGTCCAAACCCCTATGTTTAATGTAT | 2.21 |
| GAAAACAAACATTAGCTGCAGATTCCACCT | -1.29 |
| GAGCAGTGAATGTTGAAGTCCCACGGCAAC | -1.24 |
| CATTCCTTTCTAATCTCAAAGTGTCAGTCC | 1.58 |
| AAGAAGCGTCAGTTGCCTCGCCAGAGATAA | -1.31 |
| ATTTCTTTTAATGTGTGCTTTCAGGTGTGA | 1.86 |
| CAGTGGTAATGGAGCTGAAACTATAAACTT | -1.14 |
| CTCTCTTCTTGTAATCCCATTTCCCTTGTT | 1.83 |
| TCAGTTGGTCCAAGGTACATGTCTCTGCTC | 2.09 |
| TACTCTTATCAGCAGTGACTTGAGAGGCCA | -0.177 |

| Sequence | binding signal (log2 normalized intensity) |
| --- | --- |
| CTCCAACATGACCACCTGGTTTAAGTCACT | -0.978 |
| TTGCACCCAGGCCGTTGGACCAAGCTCTAG | 0.23 |
| CCAAAGAGAAGCCTAAGCAGGGCTAGACTT | -1.27 |
| CAATGAGAAACCTCAAAGGTTAGGGGGATT | -1.37 |
| AAAACAGCCCTAACCAGGGGTGGGGACCTT | -0.829 |
| CAGAGGAGGCACTTGTCTCACATCTGATAG | -1.27 |
| ACAGCTTTGGGCATACAAAACAACCACTCT | -1.32 |
| TAAGAGGCATGAGGTTCTTGTAAGGTTCTT | 0.798 |
| TAGCCTAAACTATCTGGTGCGGTCCAAGAC | -1.23 |
| CGAGGAGGCTGAGGCAGGATGACTGCTTGA | -1.38 |
| GTCAGGACCTTTCTTTATGGACCTTGTCCC | 6.86 |
| TTAATGGAAATGCCTAGGATACCTAGTAGG | -1.24 |
| AGATCAGTAGCTAGGAGACAACTTAGAATT | -1.43 |
| GTGTTTACTGGGGGCCACCATATGTATGTG | 0.624 |
| ACAAGTATACCTGTACACTTACAAGTGTAC | 1.03 |
| ATTCCTAGATATCAGGAAGGTCAGAAAGCA | 0.466 |
| GAGCCCTCTGATCTGACCCCTTCTTGACCT | 5.04 |
| AGTATTACCATGTCCTGTGATTAAGGTCAA | 2.96 |
| TCTCTCTTTTTCTGAGCCTGGGTCACCCCT | 2.05 |
| CCAACAGAGTCATCACAATAGGGAAACAGC | -1.31 |
| CCGAGGAACCCAGACTGCATTTTCATCTTG | -1.27 |
| CCTCCTAATCACTGCCCTTTGGTGCCTCTT | 2.6 |
| TCCCTAAGTACACACTGTACCCGTCCACCT | 1.32 |
| CACAAGGATCCCATTCATGTGGGTCAACAG | 1.53 |

| Sequence | binding signal (log2 normalized intensity) |
| --- | --- |
| CAAGATCCTAGTCTTTAGAGTAACCATTCT | -0.512 |
| GCATCTGTTGCTCAAGGAGGCCCAAAGGAA | 0.255 |
| AAAAGATTAAGTTATCCATGGAGTGTGAAA | 0.594 |
| ATCAATAAAAGGTCCAGAGTTCACTGCAGG | 4.13 |
| TGAAGGGGGCGGGGGCGAAAGGGAGGGGGC | -1.42 |
| TTCAAAGCCAGGACTTTCAGGAATGCACCC | 1.23 |
| CAGGATGTTTTCTCTAGCGCTTATCAGATG | -0.865 |
| ACCTGAACTTTGCTCTGTGACACAAAGAAG | 3.72 |
| AAAAAAAAAAATTACTGACCCTTGCACTGT | 5.45 |
| CGGGGTCAGGCCGTGGTGTATGATGACGCC | 0.449 |
| ATTCCTATCGGTCACCATAAAACATTCTAT | -0.695 |
| ACTGCAATAAAGTGGGTTGAAGTTCTCCCT | -0.0108 |
| AGGTCTACCAGGAATATTGCCCCCTAATGG | 3.82 |
| CCTTTCAAGGGCTTACAACTCTAAGGGGGA | -1.41 |
| TGACCATCCCAAAGCTTTTTGATTGCTTAT | 0.101 |
| AACATGGACTTTGTTGTTTGCCTCTGAAAA | 2.8 |
| TTGCTCTGCATGGATTAGCCAGCTATGATA | -1.06 |
| CACAAATACTATTCATCCTCCAAAACCCAG | 0.83 |
| ACCCAAGGGATGGCATCACCTTTGGTCAGC | 4.43 |
| ATTGACAAAGACCAGTGCTCTTTCTTCTCT | -1.16 |
| TGCCTGTGTGTTCTGCTATTCATTACAGAT | 1.41 |
| ATTAATCAAGGCTGCCTGGCAGGGTGGGGT | -1.02 |
| TTACTAAAGTTAGAATGTGCTGGATGTTTC | 0.724 |
| ATGGGTCTGGGATGTTGGGAGGAGTGGACT | 2.82 |

| Sequence | binding signal (log2 normalized intensity) |
| --- | --- |
| CTTAGGCCTCCCAGAACGTGGCCTTTAATC | 2.89 |
| TAAAGATATGGAACACTTTCAGAGAGATTG | -1.03 |
| TAGCGAGGCGGAAGTAAGGCGGAAGTACTG | -1.24 |
| CTGTGATCTGGATTTTCAGGTTCCCCAGTG | 1.94 |
| TGGGCTTTAGGTTTGGTGTTTAATTTTCAA | 1.44 |
| GAGCACATTCCTGCACCATAACCCTCAGCT | -1.26 |
| GGCGTTGACTGATCCCTCTGGAGGCTCTCT | -1.12 |
| GAATAAATACATAAAGTCCAAACCCCTATG | 2.22 |
| TCCTTTTGACCACAGTTATCTCCCCAGCTT | 2.38 |
| AACTTACGCACATTACTTTGATTGGAAAAA | -0.15 |
| ATGTCACAGGGATTACGATCCTGCCCTTCT | 2.22 |
| ACGGTTTCGTGGGGACCCAGGCTTGCAAAG | -1.45 |
| CTGGACAGAGATAAGGTAGGCACGTAAATA | -1.38 |
| ATCTCACACAGTACTTTGTACATGGGAATA | 1.8 |
| GCCGGACCGGCCAAACTGGTTTCTCCGCTC | -1.49 |
| GCTTCCCTAGCAACCTCCACATTGCAACAA | -1.28 |
| TACGTGACCTACTTAGTCTCCAGCCCCCAG | 4.08 |
| AAGACTTTATTTGAAGAAATGGTGGACTTT | 6.77 |
| ACTTGACAAATGGGGCAGCTGGGGCCCAGG | -1.32 |
| GGCATCCCTGCCGTGGCTGGAACTCCTCCG | -1.27 |
| TAGGACTCTAGTGTTCTCTTTGTGCTTTTT | 1.72 |
